The whole screen tested about 220,000 compounds, of which about 16,000 (7.3%) were called active. Inconclusive results, whose numbers are uncertain, are shown with a selection of clear calls. The call rests on the fitted dose curve; in most records, active means well fitted inhibition curve with a large enough effect (not every such curve was filed as active); inconclusive means small, poorly fitted or top-dose-only effect, or another doubt; inactive means no such curve, though single readings can be large or run the other way. Potencies of inconclusive entries are doubtful fits and often do not repeat.
Biological target: Aldehyde dehydrogenase 1A1 (Homo sapiens) (UniProt P00352)
Experiment: qHTS Assay for Inhibitors of Aldehyde Dehydrogenase 1 (ALDH1A1);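 on activity, negative = inhibition: plate controls were no enzyme wells and a reference inhibitor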
Conditions: Purified ALDH1A1, NADH fluorescence, propionaldehyde substrate; series mostly up to 75.3 µM
Potency means the concentration at half of the fitted maximal effect; tags describe the fitted curve by direction and shape.

Chain of UniProt P00352 (P00352 whole entry, looked up): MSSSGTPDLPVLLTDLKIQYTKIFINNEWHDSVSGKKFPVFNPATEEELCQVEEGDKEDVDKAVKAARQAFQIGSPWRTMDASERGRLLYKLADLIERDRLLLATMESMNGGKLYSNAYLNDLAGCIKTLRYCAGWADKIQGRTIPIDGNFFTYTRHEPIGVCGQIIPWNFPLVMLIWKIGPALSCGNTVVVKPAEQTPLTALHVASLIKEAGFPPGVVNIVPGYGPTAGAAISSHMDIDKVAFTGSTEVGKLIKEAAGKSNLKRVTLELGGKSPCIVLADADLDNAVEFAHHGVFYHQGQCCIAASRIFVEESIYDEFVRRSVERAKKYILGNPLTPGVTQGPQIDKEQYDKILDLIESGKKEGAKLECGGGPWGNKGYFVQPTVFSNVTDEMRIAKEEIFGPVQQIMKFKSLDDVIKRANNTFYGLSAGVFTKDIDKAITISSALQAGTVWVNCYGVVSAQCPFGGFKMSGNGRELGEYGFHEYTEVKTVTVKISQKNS

Potency, active:
Cc1ccc2c(nc3s/c(=C/c4cccs4)c(=O)n32)c1C 14.1 µM
CCCCc1c(C)nc2ccccc2c1SCCC#N 7.08 µM
Cc1ccc(S(=O)(=O)NCC(c2cccnc2)N(C)C)cc1 (stereo unspecified) 31.6 µM
Cc1c(C(=O)O)cccc1-n1c(C)cc(C=O)c1C 22.4 µM
CC1CN(C2CCN(C(=O)COc3ccc(Cl)cc3)CC2)CC(C)O1 (stereo unspecified) 12.6 µM
O=C1CC2(CCCC2)CC(=O)N1CCNCC1COc2ccccc2O1 (stereo unspecified) 28.2 µM
COC(=O)c1c(NC(=O)c2nc3nc(C)cc(C(F)F)n3n2)sc2c1CCC2 12.6 µM
O=C(CN1CCN(C(=O)c2c(F)cccc2F)CC1)Nc1ccccc1F 25.1 µM
COc1ccc(Cc2nn3c(-c4cc(OC)c(OC)c(OC)c4)nnc3s2)cc1 11.2 µM
CCNC(=S)Nc1cc(-c2ccc(Cl)cc2)[nH]n1 1.26 µM
O=[N+]([O-])c1cnc(N2CCCCC2)c([N+](=O)[O-])c1 17.8 µM

Potency, inconclusive:
CCN1CCCC1CNC(=O)c1cc2c(-c3cccc(OC)c3)nn(C)c2s1 (stereo unspecified) 31.6 µM [inhibitor, partial curve]
CCOC(=O)CCNC(C)C1COc2ccccc2O1 (stereo unspecified) 14.1 µM [inhibitor, single point]
CCN=C1SC(CC(N)=O)C(=O)N1CC (stereo unspecified) 25.1 µM [inhibitor, partial curve]
COc1ccc(-c2cc(C(=O)n3cnc4ccccc43)c3ccccc3n2)cc1 35.5 µM [inhibitor, single point]
O=C1CC(N(Cc2ccco2)C(=O)Nc2ccc(F)cc2)C(=O)N1c1ccc(F)cc1 (stereo unspecified) 25.1 µM [inhibitor, single point]
COP(=O)(OC)C(Nc1ccc(C)cc1)c1ccc([N+](=O)[O-])cc1 (stereo unspecified) 39.8 µM [inhibitor, single point]
C=CCOc1cccc(/C=N/NC(=O)CN(c2cc(Cl)ccc2OC)S(=O)(=O)c2ccc(C)c([N+](=O)[O-])c2)c1 39.8 µM [inhibitor, single point]
Clc1ccccc1Cn1nnc2c(NCCN3CCOCC3)ncnc21 14.1 µM [inhibitor, partial curve]
CCOc1cc(S(=O)(=O)NCC2OCCc3ccccc32)c(OCC)cc1-n1cnnn1 (stereo unspecified) 22.4 µM [inhibitor, partial curve]
O=C(O)Cc1sc(-c2ccc(C(=O)O)cc2)nc1-c1ccccc1 28.2 µM [inhibitor, partial curve]
Cc1cc(Cn2cnc3c2C[C@@H](C(=O)O)N(C(=O)C(c2ccccc2)c2ccccc2)C3)ccc1N(C)C 39.8 µM [inhibitor, single point]
CCNC(=S)N/N=C(\C)c1ccco1 39.8 µM [inhibitor, single point]
CCN(CC)S(=O)(=O)c1ccc(NC2=NS(=O)(=O)c3ccccc32)cc1 39.8 µM [inhibitor, single point]
CCC(NC(=O)c1ccc(C#CC2(O)CCCCC2)cc1)C(=O)O (stereo unspecified) 35.5 µM [inhibitor, single point]
CCOC(=O)c1cc(NC(=O)c2ccccc2)c(=O)oc1-c1ccccc1 22.4 µM [inhibitor, single point]
O=C(COc1ccc(/C=N/NC(=O)c2cc3ccccc3o2)cc1Br)Nc1ccccc1 28.2 µM [inhibitor, partial curve]
CC1=C(C(=O)Nc2cc(C)ccn2)C(c2ccc(C)cc2)C2=C(CCCC2=O)N1 (stereo unspecified) 35.5 µM [inhibitor, single point]
CN1C(=O)c2ccccc2N(C)C1c1ccccc1Cl (stereo unspecified) 35.5 µM [inhibitor, partial curve]
CCN1CCN(C(=O)C2c3cc(OC)c(OC)cc3C(=O)N(C)C2c2ccc(SC)cc2)CC1 (stereo unspecified) 20 µM [inhibitor, single point]
CCOC(=O)c1ccc(-n2c(CN3CCN(CCO)CC3)nc3ccc([N+](=O)[O-])cc3c2=O)cc1 39.8 µM [inhibitor, single point]
COc1cc2oc(=O)cc(-c3cccc(-c4cccc(C)c4)c3)c2c(OC)c1OC 44.7 µM [inhibitor, single point]
S=C(Nc1cccnc1)NC1CCCCCCC1 12.6 µM [inhibitor, partial curve]
O=C(Cn1cc(C(=O)COc2ccccc2)c2ccccc21)NCc1ccco1 25.1 µM [inhibitor, single point]
O=C(COC(=O)c1cccnc1Cl)NCCC1=CCCCC1 44.7 µM [inhibitor, single point]
COc1cccc(-c2nc(S(=O)(=O)c3ccccc3)c(N3CCOCC3)o2)c1 28.2 µM [inhibitor, single point]

Potency, inactive:
O=C(Nc1ccc(N2CCOCC2)cc1)c1ccc(-c2ccccc2[N+](=O)[O-])o1
O=C(Nc1ccccc1)C1CCCCN1S(=O)(=O)c1ccccc1 (stereo unspecified)
CSc1ncccc1C(=O)N1CCCC(CCC(=O)NCc2ccccc2F)C1 (stereo unspecified)
NC[C@@H]1O[C@H](c2ccccc2)Cc2c1ccc(O)c2O
Cc1cccc(OCCCOc2cccc3cccnc23)c1C
O=C(/C=C/c1ccccc1)Nc1ccc(Cl)cn1
COc1ccc(-c2nn(-c3ccccc3)cc2/C=N/N=C(N)N)cc1OC
COc1ccc(/C=C/C(=O)NCCc2ccc(OC)c(OC)c2)cc1
Cc1ccc(C2CC(=O)C=C(Nc3ccc(Cl)cc3)C2)cc1 (stereo unspecified)

activity, negative = inhibition, inactive:
COC(=O)C1=C(C(=O)OC)[C@@H]2N(C)c3ccccc3[C@@]23C[C@@H](C(=O)OC)N(S(=O)(=O)c2ccc(C)cc2)C3=N1 15.2% [at 13.5 µM]
